About 540 (0.36%) of roughly 150,000 compounds showed an effect of 50% or more. The list shows a part of the results.
These molecules were tested on Plasmodium falciparum (assay: Primary screen in NF54 nanoGlo assay, in single point, at 2uM, 72h; a lower Z score goes with more inhibition). Conditions: timepoint 72 hour.
Format: functional, Erythrocyte

SMILES	% Inhibition [%]	Z score
CNS(=O)(=O)[C@H]1CCN(C(=O)NCCc2ccc(OC(F)F)cc2)C1	-12	1.11
CCc1nnc(NC2CCN(Cc3ccccc3)CC2)c(C#N)c1CC	-4	0.77
CCOC(=O)Cn1cnc2c1c(=O)n(C[C@H]1CCCO1)c(=O)n2-c1ccccc1	-5	0.47
CCCN1CCN(S(=O)(=O)c2cc(-c3nc(C)cs3)n(CC(=O)N3CCCCC3)c2)CC1	-14	1.68
Cc1nccc(NC(=O)N2Cc3ccccc3O[C@@H](C)C2)n1	3	-0.37
Cc1noc(C)c1CN[C@@H](C)CCc1c[nH]c2ccccc12	-19	2.33
Cc1cnc(CN[C@@H](Cc2ccccc2)C2CCCCC2)cn1	-3	0.55
CCc1noc2nc(C)n(CC(=O)NCc3ccc(OC)cc3)c(=O)c12	-5	0.73
CC1C(c2ccccc2)CCN1CC(=O)N1CCOC2CCCCC21 (stereo unspecified)	4	-0.54
Cc1cccc(-c2nc3[nH]c(CNc4cc(Cl)ccc4C)cc(=O)n3n2)c1	16	-1.83
O=C(c1cccnc1)N1C[C@@H]2OCC(=O)N(Cc3ccncc3)[C@@H]2C1	15	-1.74
O=C(CN1Cc2ccccc2O[C@H](c2ccccc2F)C1)NCCCN1CCOCC1	5	-0.63
COc1ccc(CN(C)CC(=O)Nc2nc(-c3ccc(OC)cc3OC)cs2)c(OC)c1	2	-0.35
O=C(Cn1ccnc1)NCc1cccs1	-7	0.93
O=C(c1cn2c(n1)CC[C@H](c1cccc(C(F)(F)F)c1)C2)N1CCN(c2ccccc2F)CC1	-9	1.38
Cc1ocnc1C(=O)Nc1ccc(Oc2nnn[nH]2)cc1	-28	2.47
Cc1cc(Cl)ccc1CN1CCC(OC2CCOCC2)CC1	0	-0.04
Cc1cnc(C(=O)NC2CC3CC3C2)o1 (stereo unspecified)	-5	0.57
COC1(c2ccccc2)CCN(c2cc(C3CC3)ncn2)CC1	3	-0.46
CC(C)(C)C(=O)NCc1cccc(C(F)(F)F)c1	-15	2.2
COc1nccnc1NC1CCN(C(=O)NCc2ccco2)CC1	-11	1.39

SMILES	% Inhibition [%]	Z score
COCC1(C(=O)N2CCC[C@H]2c2nc(-c3ccccc3)no2)CCC1	6	-0.78
CCn1cc(C2=CCN(S(=O)(=O)c3cccc(F)c3)CC2)c2cccnc21	-17	2.28
OC[C@@H](Cc1ccccc1)Nc1nc(NC2CC2)nc2c1CCNCC2	2	-0.44
CC1(C)C[C@@H](c2nccn2C2CCN(S(C)(=O)=O)CC2)CCO1	-19	2.56
COCCn1c([C@H](C)NC(=O)Cc2c(C)n[nH]c2-c2ccc(Cl)cc2)nc2ccccc21	-7	0.94
c1cc(CNc2nnc(CC3CC3)o2)c2ccncc2c1	-15	1.6
Cc1nccn1CC(=O)N[C@H](c1cnn(C)c1)C(C)(C)C	-7	1.22
Cn1c(CS(=O)(=O)Cc2nc(C(C)(C)C)cs2)nnc1C1CCC1	-17	2.13
CN(Cc1ccco1)C(=O)Cn1cnc2ccc(Cl)cc2c1=O	-9	1.36
COC(=O)c1ccccc1NCC(=O)NC(=O)NC1CCCC1	-3	0.42
Cc1ccc2c(CCNC(=O)N3CCC[C@H]3CO)cn(C)c2c1	5	-0.84
Cc1sc2ncnc(N3CC[S+]([O-])CC3)c2c1C	-5	0.75
Cc1cc(CN2C(=O)c3ccccc3C2=O)cc(C(=O)N2CCc3ccccc3C2)c1O	9	-1.17
CCn1c(C(=O)NCc2cccc(OC)c2)c(N2CCCC2=O)c2cc(OC)ccc21	-6	0.89
C[C@@H](NCc1ncc(Cl)s1)c1ccc(Br)cc1	7	-1.38
Cc1ccc(C)c(C(=O)c2sc(Nc3ccc4c(c3)OCCO4)nc2N)c1	1	-0.21
C[C@@H](CN(C)c1ccc(Cl)cc1C#N)C(=O)O	-20	2.53
CC(C)(C)CN1C[C@@H]2C[C@H]1C(=O)N1CCO[C@H](CN(Cc3ccc(F)c(F)c3)C[C@H]3O[C@@H](CC(=O)N2)[C@H](O)[C@@H]3O)C1	-15	2.22
Cc1noc(C)c1NC(=O)c1ccc(Cl)cc1	-7	1.16
Nc1ncc(C(=O)N2CCC3(CCCC3)C2)s1	6	-0.8
COc1cc2nc(N(C)C)c(CN(CCc3ccc(F)cc3)C(=O)CCn3ccc(C)n3)cc2c(OC)c1OC	12	-1.47

SMILES	% Inhibition [%]	Z score
O=C(CC[C@@H]1NC(=O)NC1=O)NCc1n[nH]c2c1CCCCC2	-14	1.42
COc1cccc2c1CC[C@]2(N)C(=O)NCCc1ncc[nH]1	-4	0.73
CCC1(CNC(=O)[C@@H]2Cc3cc(C)ccc3S2(=O)=O)CCC1	-9	1.07
COC(=O)c1cncc(C(=O)O[C@H](c2c(C)nn(C)c2C)C(F)(F)F)c1	4	-0.59
CCOc1cc(C(=O)N(C)[C@@H]2CCC[C@H]2O)n[nH]1	-9	1.7
CCc1ccc(N2C[C@@H](C(=O)OCc3nc(C(C)C)no3)CC2=O)cc1	1	-0.1
Cc1c(CN[C@H]2CN(C(=O)OC(C)(C)C)CC2(C)C)cnn1C	-9	1.16
CCc1nsc(N2CC([C@H](C)O)C2)n1	-12	1.55
Cc1cnccc1CN(C)C1CCN(Cc2ccco2)CC1	-11	1.44
CCC(CC)(NC(=O)c1ccc(Cl)cn1)c1nnn[nH]1	-10	1.29
O=C(CCc1nnc(C(=O)Nc2ccc(F)cc2)s1)NCc1cccnc1	-9	1.67
Cn1cncc1-c1ccc(C(=O)N2C[C@H]3CC=CC[C@H]3C2)cc1	-10	2.03
O=S(=O)(c1ccccc1)N1C[C@H](O)[C@@H](N2CCC(OCc3cccnc3)CC2)C1	-3	0.5
Cc1noc(OCCN2CCO[C@@H](C)C2)n1	-9	1.58
Cc1ccc2c(c1)OC[C@H](CC(=O)N1CCC(C)CC1)N2Cc1ccc(F)cc1	-12	1.71
Cc1cc2nc3n(c(=O)c2n1CC(=O)Nc1ccccc1C(F)(F)F)CCC3	4	-0.46
CCCc1nnc(N(C)CCN2CCOCC2)o1	-7	0.83
COc1ccc(CN2CCC3(CC2)c2ccccc2[C@@H](NC(=O)c2cccs2)[C@@H]3OC)c(F)c1	-15	2
C[C@H](NC(=O)c1ncccc1Cl)C1CCCC1	-3	0.46
CCc1nc(CN2C(=O)COc3ccc(S(=O)(=O)N4CCOCC4)cc32)no1	-1	0.09
Nc1cccc(C(=O)Nc2cccc(C3CCOCC3)c2)c1	-11	1.28

SMILES	% Inhibition [%]	Z score
CCn1c(CC2CCNCC2)nn(Cc2cc(C)ccc2C)c1=O	-9	1.52
O=S(=O)(Oc1cc(Cl)ccc1-c1nc2ncccc2o1)c1ccccc1OC(F)(F)F	-7	0.84
CC1(C)C(c2ccccn2)=[N+]([O-])[C@@H](c2ccc(Cl)cc2Cl)N1O	-1	0.07
NC(=O)C1CCN(C(=O)[C@H]2CC[C@H](Cn3c(=O)[nH]c4ccccc4c3=O)CC2)CC1	-8	1.02
Cc1cnc(CNS(=O)(=O)c2ccc(OC(C)C)cc2)o1	-1	0.12
COc1ccc(-c2nc(C)ccc2OC)c(OC)n1	-12	1.58
Cc1ccc(C(=O)Nc2c(C)n(C)n(-c3ccccc3)c2=O)cc1S(=O)(=O)Nc1cccc(C)c1C	-7	0.76
Cc1ccccc1C(=O)NCC(=O)Nc1ccc(-n2ccnn2)cc1	-1	0.29
CCn1cnc2c1CCN([C@@H](C)c1ccccc1C)C2	-5	0.48
CC(C)Cc1nc(N2CCCN(C(=O)c3ccc(C(C)(C)C)cc3)CC2)c2c(-c3ccc4ccccc4c3)noc2n1	0	0
CCC(C)[C@H](NC(=O)Nc1ccc(C)c(C)c1)C(=O)O (stereo partly specified)	4	-0.47
CN1CC(=O)N2C[C@@H](NC(=O)c3ccc(-c4ccsc4)cc3)C[C@H]2C1=O	9	-1.31
CNC(=O)CCCN(C)Cc1ccc(C)c(C)c1	-8	1.19
Cc1ccc(C)c(NC(=O)Cn2c(C)ncc(C(=O)NC3CCCC3)c2=O)c1	-11	1.71
Cc1nc(NC(=O)CNC(=O)OCc2ccccc2)sc1C	-9	0.8
Cc1cc(C)nc(NCCCOc2cccnc2)n1	-17	1.62
CC1CCN(Cc2nc3cc(NC(=O)c4ccccc4Cl)ccc3n2C)CC1	-28	2.46
COc1cc(C)n(CCNC(=O)c2cn(-c3ccccc3)c(=O)cc2OC)c(=O)c1	-1	0.18
CCOc1ccc(N2C[C@@H](c3nnc(NC(=O)COc4ccc(F)cc4)o3)CC2=O)cc1	-7	1
C[C@H]1CN(C(=O)c2ncccc2O)CCN1C(=O)OC(C)(C)C	1	-0.17

Source: ChEMBL document CHEMBL4888484, “Replenishing the malaria drug discovery pipeline: Screening and hit evaluation of the MMV Hit Generation Library 1 (HGL1) against asexual blood stage Plasmodium falciparum ,using a nano luciferase reporter read-out” (2022)
